Experimental data reported in PubChem BioAssay (NCI).
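Values below derive from 48-hour exposures of cells grown in 96-well plates, with endpoints linearly interpolated between the two concentrations bracketing the appropriate inhibition level. GI50: concentration for 50% inhibition of growth.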 Some entries of the source have several records that differ or are many. This list holds those alone. An entry can have further records. Records of one sample usually come from different ranges of test concentrations, which the source does not state; some values may only mark the edge of a range.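 TGI is the concentration that stops growth completely.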

What was measured:
Assay in all cases: NCI-60 cell line screen, 48 h
[1] = system: A549 NSCLC
[2] = system: TK-10 renal
[3] = system: SN12C renal
[4] = system: SW-620 colon
[5] = system: SNB-19 CNS
[6] = system: LOX IMVI melanoma
[7] = system: LXFL 529 NSCLC
[8] = system: M19-MEL melanoma
[9] = system: SR leukemia
[10] = system: HOP-18 NSCLC
[11] = system: HL-60(TB) leukemia
[12] = system: SK-MEL-2 melanoma
[13] = system: OVCAR-5 ovarian
[14] = system: CAKI-1 renal
[15] = system: KM12 colon
[16] = system: DMS 114 small cell lung
[17] = system: OVCAR-8 ovarian
[18] = system: NCI-H460 lung
[19] = system: DLD-1 colon
[20] = system: EKVX NSCLC
[21] = system: A498 renal
[22] = system: KM20L2 colon
[23] = system: HCC-2998 colon
[24] = system: NCI-H522 lung
[25] = system: SK-OV-3 ovarian
[26] = system: UO-31 renal
[27] = system: SK-MEL-28 melanoma
[28] = system: SK-MEL-5 melanoma
[29] = system: DMS 273 small cell lung
[30] = system: SF-295 CNS
[31] = system: SF-539 CNS
[32] = system: IGROV1 ovarian
[33] = system: HOP-62 NSCLC
[34] = system: M14 melanoma
[35] = system: OVCAR-3 ovarian
[36] = system: U251 CNS
[37] = system: ACHN renal
[38] = system: RXF 393 renal
[39] = system: HCT-15 colon
[40] = system: SNB-78 CNS
[41] = system: MOLT-4 leukemia
[42] = system: UACC-62 melanoma
[43] = system: CCRF-CEM leukemia
[44] = system: HT29 colon
[45] = system: SF-268 CNS
[46] = system: HCT-116 colon
[47] = system: RPMI-8226 leukemia
[48] = system: SNB-75 CNS
[49] = system: 786-0 renal
[50] = system: OVCAR-4 ovarian
[51] = system: K-562 leukemia
[52] = system: NCI-H226 lung
[53] = system: HOP-92 NSCLC
[54] = system: COLO 205 colon
[55] = system: UACC-257 melanoma
[56] = system: NCI-H23 lung
[57] = system: MALME-3M melanoma

For `COc1cccc2c1C(=O)c1c(O)c3c(c(O)c1C2=O)C[C@@](O)(C(C)=O)C[C@@H]3OC1CC(N(Cc2ccccc2)Cc2ccccc2)C(O)C(C)O1` (some centres not stated), the GI50 [1] was < 10 nM and 208 nM, the TGI [1] was < 10 nM, 7.56 µM, > 37.5 µM and the GI50 [2] was < 10 nM and 3.02 µM. For the same molecule, the TGI [2] was < 10 nM and > 28.1 µM, the GI50 [3] was < 10 nM and 754 nM and the TGI [3] was < 10 nM, 8.43 µM, > 37.5 µM. For the same molecule, the TGI [4] was < 10 nM, 519 nM, > 50 µM, the GI50 [5] was < 10 nM and 193 nM and the TGI [5] was < 10 nM, 4.98 µM, > 50 µM. For the same molecule, the GI50 [6] was < 10 nM and 487 nM, the TGI [6] was < 10 nM, 3.05 µM, 30.5 µM and the TGI [7] was < 10 nM and 6.13 µM. For the same molecule, the GI50 [8] was < 10 nM and 1.19 µM, the TGI [8] was < 10 nM, 3.05 µM, > 50 µM and the GI50 [9] was 944 nM [mean of 2 tests] and < 10 nM [mean of 3 tests]. For the same molecule, the TGI [9] was < 10 nM, 806 nM, > 14 µM, the GI50 [10] was 1.49 µM [mean of 2 tests] and < 10 nM [mean of 3 tests] and the TGI [10] was < 10 nM, 4.28 µM, > 50 µM. The GI50 [11] was < 10 nM and 535 nM, the TGI [11] was < 10 nM, 4.39 µM, > 50 µM and the GI50 [12] was < 10 nM and 2.02 µM. For the same molecule, the TGI [12] was < 10 nM, 6.07 µM, > 36 µM, the GI50 [13] was < 10 nM [mean of 3 tests] and 1.85 µM [mean of 4 tests] and the TGI [13] was < 10 nM, 9.05 µM, > 37.5 µM. For the same molecule, the GI50 [14] was < 10 nM and 121 nM, the TGI [14] was < 10 nM, 859 nM, 44.4 µM and the GI50 [15] was < 10 nM and 793 nM. The TGI [15] was < 10 nM, 6.02 µM, > 36 µM, the GI50 [16] was 1.14 µM [mean of 3 tests] and < 10 nM [mean of 4 tests] and the TGI [16] was < 10 nM, 6.05 µM, > 50 µM. The GI50 [17] was < 10 nM and 368 nM, the TGI [17] was < 10 nM, 4.49 µM, > 37.5 µM and the GI50 [18] was < 10 nM and 113 nM. For the same molecule, the TGI [18] was < 10 nM, 7.2 µM, > 37.5 µM, the GI50 [19] was 372 nM [mean of 2 tests] and < 10 nM [mean of 3 tests] and the TGI [19] was < 10 nM, 4.32 µM, > 28.1 µM. The GI50 [20] was < 10 nM and 3.16 µM, the TGI [20] was < 10 nM, 8.16 µM, > 50 µM and the GI50 [21] was < 10 nM [mean of 2 tests] and 2.88 µM [mean of 3 tests]. For the same molecule, the TGI [21] was < 10 nM and > 36 µM, the GI50 [22] was < 10 nM [mean of 2 tests] and 511 nM [mean of 3 tests] and the TGI [22] was < 10 nM, 3.72 µM, > 50 µM. For the same molecule, the GI50 [23] was < 10 nM [mean of 3 tests] and 1.83 µM [mean of 4 tests], the TGI [23] was < 10 nM and > 31.6 µM and the GI50 [24] was < 10 nM and 2.16 µM. The TGI [24] was < 10 nM, 7.11 µM, > 36 µM, the GI50 [25] was < 10 nM and 8.08 µM and the TGI [25] was < 10 nM and > 36 µM. For the same molecule, the GI50 [26] was 745 nM [mean of 3 tests] and < 10 nM [mean of 4 tests], the TGI [26] was < 10 nM, 6.94 µM, > 36 µM and the GI50 [27] was < 10 nM and 2.12 µM. The TGI [27] was < 10 nM, 6.05 µM, > 37.5 µM, the GI50 [28] was < 10 nM [mean of 3 tests] and 1.75 µM [mean of 4 tests] and the TGI [28] was < 10 nM, 6.41 µM, 30.9 µM. For the same molecule, the GI50 [29] was < 10 nM and 382 nM, the TGI [29] was < 10 nM, 6.12 µM, > 36.3 µM and the GI50 [30] was < 10 nM and 1 µM. The TGI [30] was < 10 nM, 7.13 µM, 25.9 µM, the GI50 [31] was < 10 nM and 1.04 µM and the TGI [31] was < 10 nM, 7.92 µM, > 37.5 µM. The GI50 [32] was < 10 nM and 1.25 µM, the TGI [32] was < 10 nM, 7.97 µM, > 37.5 µM and the GI50 [33] was < 10 nM and 3.72 µM. For the same molecule, the TGI [33] was < 10 nM and > 31.6 µM, the GI50 [34] was < 10 nM and 21.9 µM and the TGI [34] was < 10 nM, 9.29 µM, > 28.1 µM. For the same molecule, the GI50 [35] was < 10 nM and 1.99 µM, the TGI [35] was < 10 nM, 7.78 µM, > 36 µM and the GI50 [36] was < 10 nM and 932 nM. For the same molecule, the TGI [36] was < 10 nM and > 37.5 µM, the GI50 [37] was < 10 nM and 2.71 µM and the TGI [37] was < 10 nM, 3.51 µM, > 28.1 µM. The GI50 [38] was < 10 nM and 1.27 µM, the TGI [38] was < 10 nM, 4.21 µM, > 37.5 µM and the GI50 [39] was < 10 nM [mean of 3 tests] and 476 nM [mean of 4 tests]. For the same molecule, the TGI [39] was < 10 nM, 6.09 µM, > 37.5 µM, the GI50 [40] was > 50 µM [mean of 3 tests] and < 10 nM [mean of 4 tests] and the TGI [40] was > 50 µM [mean of 3 tests] and < 10 nM [mean of 4 tests]. For the same molecule, the GI50 [41] was < 10 nM, 96 nM [mean of 4 tests] and 2.12 µM [mean of 6 tests], the TGI [41] was < 10 nM, 439 nM [mean of 4 tests] and 23.1 µM [mean of 6 tests] and the GI50 [42] was < 10 nM and 1.15 µM. The TGI [42] was < 10 nM, 4.44 µM, > 50 µM, the GI50 [43] was 382 nM [mean of 3 tests] and < 10 nM [mean of 4 tests] and the TGI [43] was < 10 nM, 4.05 µM, > 34.1 µM. For the same molecule, the GI50 [44] was < 10 nM and 8.07 µM, the TGI [44] was < 10 nM, 9.15 µM, > 28.1 µM and the GI50 [45] was < 10 nM and 794 nM. For the same molecule, the TGI [45] was < 10 nM, 7.58 µM, > 36 µM, the GI50 [46] was < 10 nM and 239 nM and the TGI [46] was < 10 nM, 3.95 µM, > 37.5 µM. The GI50 [47] was < 10 nM and 468 nM, the TGI [47] was < 10 nM, 3.46 µM, > 46 µM and the GI50 [48] was 1.55 µM [mean of 3 tests] and < 10 nM [mean of 4 tests]. For the same molecule, the TGI [48] was < 10 nM, 9.55 µM, > 37.5 µM, the GI50 [49] was 3.19 µM [mean of 3 tests] and < 10 nM [mean of 4 tests] and the TGI [49] was < 10 nM, 6.87 µM, > 23.2 µM. For the same molecule, the GI50 [50] was < 10 nM and 786 nM, the TGI [50] was < 10 nM, 6.51 µM, > 36 µM and the GI50 [51] was < 10 nM and 371 nM. The TGI [51] was < 10 nM, 3.49 µM, > 36 µM, the GI50 [52] was < 10 nM [mean of 2 tests] and 1.05 µM [mean of 4 tests] and the TGI [52] was < 10 nM, 3.89 µM, > 36 µM. The GI50 [53] was < 10 nM [mean of 2 tests] and 1.69 µM [mean of 4 tests], the TGI [53] was < 10 nM, 9.78 µM, > 36 µM and the GI50 [54] was 1.22 µM [mean of 3 tests] and < 10 nM [mean of 4 tests]. The TGI [54] was < 10 nM, 8.64 µM, > 34.1 µM, the GI50 [55] was < 10 nM and 2.48 µM and the TGI [55] was < 10 nM, 8.79 µM, > 34.1 µM. The GI50 [56] was 884 nM [mean of 2 tests] and < 10 nM [mean of 4 tests], the TGI [56] was < 10 nM, 5.6 µM, > 37.5 µM and the GI50 [57] was < 10 nM and 1.22 µM. For the same molecule, the TGI [57] was < 10 nM, 6.73 µM, > 37.5 µM.
